Results from the supplement of paper PMC3724861.
The other results are listed elsewhere or left out.

The sequences below were run on T1, Caupolican (Caup) homeodomain DNA-binding domain (assay: PBM E-score (8-mer, recovered from the published 9-mer minima) (E-score (dimensionless, -0.5 to 0.5)); Drosophila protein; higher = stronger relative binding preference, active = 0.31 or more).
T1 sequence: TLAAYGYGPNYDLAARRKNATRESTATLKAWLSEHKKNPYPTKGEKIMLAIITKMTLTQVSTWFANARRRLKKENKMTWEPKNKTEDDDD
How it was run: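 An enrichment score, with higher meaning stronger, expresses relative binding preference for each short DNA word. The protein used was Caup's homeodomain DNA-binding domain (residues 214-303), produced by in vitro transcription and translation and tested at 100 nM on custom-designed protein binding microarrays. The 8-mer values were recovered from published 9-mer scores, each equal to the lower of its two constituent 8-mer scores.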

| Sequence | PBM E-score |
| --- | --- |
| CCACGATC | inactive: 0.0343 |
| CGCTGCCA | inactive: -0.19 |
| CCTGCGGA | inactive: -0.128 |
| CAACATCA | inactive: 0.298 |
| TAGGTACA | inactive: 0.271 |
| CAGATACA | inactive: 0.292 |
| GATAACGC | inactive: -0.0177 |
| AGGCCAGC | inactive: -0.208 |
| CTCAAGTA | inactive: 0.152 |
| ACCCCGGC | inactive: -0.22 |
| ACCCCCCC | inactive: -0.409 |
| ACCAAAAT | inactive: 0.0493 |
| CATGCATC | inactive: 0.0576 |
| CGATAACG | inactive: -0.0766 |
| AGCGCTCG | inactive: -0.146 |
| ACTCTGGG | inactive: -0.162 |
| TCTGACCA | ≥ 0.0177 |
| CCTCGCAC | inactive: -0.0533 |
| CGACCCAG | inactive: -0.124 |
| CTTCTCAC | inactive: -0.101 |
| ACAACGAT | inactive: 0.186 |
| CAGGCCGA | inactive: -0.13 |
| CCCTCGGA | inactive: -0.156 |

| Sequence | PBM E-score |
| --- | --- |
| TCCGTAAA | inactive: -0.0398 |
| GTAGAGCA | inactive: 0.0304 |
| ACACGACA | active: ≥ 0.386 |
| AGCCGGCG | inactive: -0.278 |
| ATCGCCCA | inactive: -0.106 |
| CTGACGTC | inactive: -0.0596 |
| AAACGCTC | inactive: -0.101 |
| CGTAGCAC | inactive: 0.00405 |
| TCGATGCA | inactive: 0.0975 |
| GAGAGATC | inactive: 0.0319 |
| AATTGGGT | ≥ 0.0803 |
| AAATCGAC | inactive: 0.0824 |
| TGATACCA | ≥ 0.163 |
| CTTCGGAC | inactive: -0.0138 |
| AGACAAGC | inactive: 0.242 |
| ATCATTGC | inactive: 0.0874 |
| CCACCGGA | inactive: -0.107 |
| ACAACCAC | inactive: 0.225 |
| GCGGCGAC | inactive: -0.167 |
| AGTTGGTG | inactive: -0.0391 |
| CCTCATAA | inactive: 0.021 |
| ACATGGCT | inactive: 0.229 |
| ATGGATTA | inactive: 0.0621 |

| Sequence | PBM E-score |
| --- | --- |
| CCTGTCCA | inactive: 0.0374 |
| CCAGTGAG | inactive: -0.148 |
| AATCGTCC | inactive: 0.0139 |
| TACTCCGA | ≥ -0.0184 |
| TACGTCGA | inactive: -0.0194 |
| CCACCGCG | inactive: -0.187 |
| ACAAGGCT | inactive: 0.212 |
| CTAACATC | inactive: 0.208 |
| CAGAATAG | inactive: 0.0182 |
| ACGTCCTG | inactive: -0.0739 |
| GCCCGGAA | inactive: -0.219 |
| CTGGGATC | inactive: -0.152 |
| TAAAGCCA | inactive: 0.00246 |
| AAGGCGCC | inactive: -0.16 |
| CCAAGTCC | inactive: -0.141 |
| TCATGTCA | active: 0.391 |
| AAACGGAC | inactive: -0.0481 |
| GAGCCTGC | inactive: -0.108 |
| CTTAAGAA | inactive: 0.0752 |
| CTCATTCA | inactive: 0.00411 |
| CATTATAC | inactive: 0.154 |
| CCAGCCTC | inactive: -0.203 |
| ATGAGCCC | inactive: -0.0983 |

| Sequence | PBM E-score |
| --- | --- |
| GCGTTGGA | inactive: -0.0829 |
| ATGCAATG | inactive: 0.0749 |
| ATCGCTGC | inactive: -0.159 |
| GAGGCATC | inactive: -0.258 |
| AGACAGGA | inactive: 0.134 |
| CCGGGGGA | inactive: -0.317 |
| TGCAGCAA | inactive: 0.0278 |
| AGTTTCGG | inactive: 0.0621 |
| GAAACGCC | inactive: -0.0373 |
| CAGTTGCC | inactive: -0.0665 |
| AAATGGGT | inactive: 0.00068 |
| ATTATGGA | ≥ 0.114 |
| GCACAACC | inactive: -0.0222 |
| CAAATCTC | inactive: 0.021 |
| CTGATCTC | inactive: -0.0515 |
| ACCCTACT | inactive: 0.0764 |
| AAGGGGCA | inactive: -0.155 |
| GGGGTTTA | inactive: -0.0962 |
| CTTCCTTA | inactive: 0.0568 |
| GATGTTGA | inactive: 0.254 |
| CCCTGTGC | inactive: -0.205 |
| CAAGCTGA | inactive: 0.031 |
| CAATACTG | inactive: 0.089 |

| Sequence | PBM E-score |
| --- | --- |
| ATCTTTAC | inactive: 0.139 |
| GATTCTGA | inactive: 0.0205 |
| CTTGCAGC | inactive: -0.11 |
| AACGTAAG | inactive: -0.0364 |
| ATCGGATG | inactive: 0.0211 |
| GCGTACAC | inactive: 0.217 |
| AACTGACT | inactive: 0.0473 |
| CACCTACA | inactive: 0.17 |
| ATTAGATC | inactive: 0.122 |
| GCAAGCTA | inactive: 0.00418 |
| GGTCGAGA | inactive: -0.144 |
| ATGTCGAG | inactive: 0.274 |
| CGGTCCGC | inactive: -0.22 |
| ACCACAAG | inactive: 0.0407 |
| ATTGCGTG | inactive: 0.03 |
| ACGATCCG | inactive: -0.043 |
| ACTACAAA | inactive: 0.256 |
| TTAGCTAA | inactive: 0.0617 |
| GCACACAC | inactive: 0.0659 |
